Test results published in the RNAGym collection of RNA variant scans (doi:10.1101/gad.245936.114).
Variants at the floor of the assay are shown more often than the library holds them.

B1: tRNA (parent)
chain: CUCUCGGUAGCCAAGUUGGUUUAAGGCGCAAGACUUUAAUUUAUCACUACGAAAUCUUGAGAUCGGGCGUUCGACUCGCCCCCGGGAGAUUUUUUCCUCGAGCAA

Variants of: B1
Assay: nonsense suppression (GFP-seq) (ratio to wild type); higher = more function; SUP4oc tRNA, yeast GFP reporter sort-seq
Summary of the method: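 Raffinose/galactose medium with 80 mg/L adenine was used to grow yeast carrying genome-integrated tRNA variants (~3% random-mutation library), RFP, and a galactose-driven GFP ochre reporter. Cells went into GFP/RFP bins, which were Illumina-sequenced, and variants with ≥100 reads and ≥30 cells were scored. Nonsense suppression (GFPSEQ) is the per-bin median GFP/RFP weighted by estimated cell share and expressed relative to the unmutated parent tRNA.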

Variant	nonsense suppression
C11A G25U	≤ 0.026
C11A G26A G88U	≤ 0.026
C11A G26C	≤ 0.026
C11A G26C G32U	≤ 0.026
C11A G26C G66U	≤ 0.026
C11A G26C U55G G85A	≤ 0.026
C11A G26U	≤ 0.026
C11A G26U A30G	≤ 0.026
C11A G26U A62G U63G G67U A74G	≤ 0.026
C11A G26U A62G U63G G67U A74U	≤ 0.026
C11A G26U C34A	≤ 0.026
C11A G26U U70G	≤ 0.026
C11A G28U A62G U70G	≤ 0.026
C11A G32C G61U	≤ 0.026
C11A G32U U76G C77G	≤ 0.026
C11A G59A G61U	≤ 0.026
C11A G61A C83U G86A G88A	≤ 0.026
C11A G61C	≤ 0.026
C11A G66C	≤ 0.026
C11A G67C	≤ 0.026
C11A G69A	≤ 0.026
C11A G73U	≤ 0.026
C11A G85A	≤ 0.026
C11A G86C	≤ 0.026

Variant	nonsense suppression
C11A G86U	≤ 0.026
C11A U17A G26U	≤ 0.026
C11A U17A U20A C34U A54C	≤ 0.026
C11A U17C C34A	≤ 0.026
C11A U21A G32U	≤ 0.026
C11A U22C C77U G86C	≤ 0.026
C11A U55A C56G	≤ 0.026
C11A U57C C64G	≤ 0.026
C11A U70A C72U	≤ 0.026
C11A U70G	≤ 0.026
C11A U71C A89G	≤ 0.026
C11A U71G	≤ 0.026
C11A U71G A74C A87G	≤ 0.026
C11A U76A C82A	≤ 0.026
C11A U76C	≤ 0.026
C11A U76G	≤ 0.026
C11G	≤ 0.026
C11G A13G G85A	≤ 0.026
C11G A13U	≤ 0.026
C11G A13U A62C	≤ 0.026
C11G A13U G59A	≤ 0.026
C11G A13U U17A	≤ 0.026
C11G A14G	≤ 0.026
C11G A23C G59C G78U	≤ 0.026

Variant	nonsense suppression
C11G A23G C34A C81U	≤ 0.026
C11G A23G C56U U57G U71C C77G	≤ 0.026
C11G A23G C64G A87C	≤ 0.026
C11G A23G G86A	≤ 0.026
C11G A23U G73U C81A G88A	≤ 0.026
C11G A24C	≤ 0.026
C11G A24G A33G C34A G85A	≤ 0.026
C11G A24U A62C C68G	≤ 0.026
C11G A30G G67U	≤ 0.026
C11G A31G C68A U76C G88A	≤ 0.026
C11G A31U U71A C72A A74C C81A C82U	≤ 0.026
C11G A33G	≤ 0.026
C11G A33G C64A U76G	≤ 0.026
C11G A54C G65A	≤ 0.026
C11G A60U A74U	≤ 0.026
C11G A89C	≤ 0.026
C11G C12A U35G U55C U76A G84U	≤ 0.026
C11G C12G A60U	≤ 0.026
C11G C12G U70C U71G A74U	≤ 0.026
C11G C12U	≤ 0.026
C11G C12U A13C U63C A74G	≤ 0.026
C11G C12U G25U	≤ 0.026
C11G C27A	≤ 0.026
C11G C27U A60C G69A U70G	≤ 0.026

Variant	nonsense suppression
C11G C29G C72U	≤ 0.026
C11G C29U A60C G88U	≤ 0.026
C11G C29U G78A	≤ 0.026
C11G C34U	≤ 0.026
C11G C34U U63G G67A A87C	≤ 0.026
C11G C56G G85A	≤ 0.026
C11G C72G	≤ 0.026
C11G C77G	≤ 0.026
C11G C79G	≤ 0.026
C11G C80G	≤ 0.026
C11G G15A G86C	≤ 0.026
C11G G15U G78C	≤ 0.026
C11G G18A	≤ 0.026
C11G G18U A23C A54C	≤ 0.026
C11G G19A G78A	≤ 0.026
C11G G19C C27G A60C G73U	≤ 0.026
C11G G19C U20A U21A A23G C29U G88A	≤ 0.026
C11G G19U	≤ 0.026
C11G G19U A23U	≤ 0.026
C11G G19U U20A	≤ 0.026
C11G G25C	≤ 0.026
C11G G26A A33U U63A G66C G67C C80U	≤ 0.026
C11G G26A G85U	≤ 0.026
C11G G26C A30C	≤ 0.026

Variant	nonsense suppression
C11G G28A C34U	≤ 0.026
C11G G28A G66A G88U	≤ 0.026
C11G G28C A30G	≤ 0.026
C11G G32C	≤ 0.026
C11G G32C U57C A60U G61C	≤ 0.026
C11G G32U G73U	≤ 0.026
C11G G32U U76G	≤ 0.026
C11G G59C A74U C80G	≤ 0.026
C11G G61A G67C C68U G88U	≤ 0.026
C11G G61A U70A G84A	≤ 0.026
C11G G61C G67C G78C	≤ 0.026
C11G G61C G69U G73C U76G	≤ 0.026
C11G G65C C82U	≤ 0.026
C11G G66A	≤ 0.026
C11G G66A G69C	0.0424
C11G G66C	≤ 0.026
C11G G67A G69U	≤ 0.026
C11G G67U	≤ 0.026
C11G G69C U71G C80A	≤ 0.026
C11G G73A G84C	≤ 0.026
C11G G73A G84U	≤ 0.026
C11G G73C	≤ 0.026
C11G G73U C80G	≤ 0.026
C11G G78U G88C	≤ 0.026

Variant	nonsense suppression
C11G U16A C29U U57A C68U	≤ 0.026
C11G U16G G66A	≤ 0.026
C11G U17C U21C U63C	≤ 0.026
C11G U17G	≤ 0.026
C11G U20A U22C C34G U70C	≤ 0.026
C11G U20C	≤ 0.026
C11G U20G	≤ 0.026
C11G U20G A24U A30G	≤ 0.026
C11G U20G A33U	≤ 0.026
C11G U21A C27G U71A	≤ 0.026
C11G U21C U70A U71C	≤ 0.026
C11G U22C	≤ 0.026
C11G U22C A54C G67U C83U	≤ 0.026
C11G U35C A74U C82A	≤ 0.026
C11G U35G	≤ 0.026
C11G U55C	≤ 0.026
C11G U57G A60U C83U	≤ 0.026
C11G U57G A62C	≤ 0.026
C11G U58A G67C C81A	≤ 0.026
C11G U63A G65C	≤ 0.026
C11G U71A	≤ 0.026
C11G U71A G86C	≤ 0.026
C11G U71G C83U A87G G88A	≤ 0.026
C11U	≤ 0.026

Variant	nonsense suppression
C11U A13C C29A A54G C75A	≤ 0.026
C11U A13C G25U C34G C75G A87G	≤ 0.026
C11U A13C U70A C75U	≤ 0.026
C11U A13G A60C	≤ 0.026
C11U A13G G69C G73A	≤ 0.026
C11U A13U A24U A62G	≤ 0.026
C11U A14C G26C A31G	≤ 0.026
C11U A14C U16C	≤ 0.026
C11U A14G G25A C75A U76A	≤ 0.026
C11U A14U C68G	≤ 0.026
C11U A23G U55A	≤ 0.026
C11U A23U	≤ 0.026
C11U A24C	≤ 0.026
C11U A24C A30U G78A	≤ 0.026
C11U A24C A54G	≤ 0.026
C11U A24C A62C G69U	≤ 0.026
C11U A24G G26C U71A	≤ 0.026
C11U A24U C34A C83U	≤ 0.026
C11U A24U C77G	≤ 0.026
C11U A30C G61A G69A G88C	≤ 0.026
C11U A30C U57C C79G A89G	≤ 0.026
C11U A30C U58G A89U	≤ 0.026
C11U A30G A31U U35G G67C U76C	≤ 0.026
